# Measured values from ChEMBL document CHEMBL4888484, “Replenishing the malaria drug discovery pipeline: Screening and hit evaluation of the MMV Hit Generation Library 1 (HGL1) against asexual blood stage Plasmodium falciparum ,using a nano luciferase reporter read-out” (2022).
# Among all 150,000 compounds or so, about 540 (0.36%) showed an effect of 50% or more. The list shows a part of the results.
# Test system: Plasmodium falciparum
# Assay: Primary screen in NF54 nanoGlo assay, in single point, at 2uM, 72h; a lower Z score goes with more inhibition
# Format: functional, Erythrocyte
# Conditions: timepoint 72 hour
Structure (SMILES),% Inhibition [%],Z score
Cc1cccc(-n2cc(-c3ccccc3)nc2NC(=O)CN(C(=O)c2ccco2)C2CC2)c1,-6,0.93
CC(C)c1csc(CCNC(=O)c2c[nH]c(=O)[nH]2)n1,7,-1.01
Cc1nc2cccnc2n1-c1cc(C(=O)NCCc2ccccc2)ccc1Cl,38,-5.43
Cc1ccccc1S(=O)(=O)N1CCN(CC2CC2)[C@@H]2CS(=O)(=O)C[C@@H]21,-8,1.22
CCN1C(=O)NC(=O)C12CCN(Cc1cnc(-c3cccs3)nc1)CC2,5,-1.02
Cc1ccc(NS(=O)(=O)CC2CCC2)c(Cl)c1,-7,1.02
COC[C@@H]1CCC[C@@H]1Nc1cc(C)nc2ccnn12,-3,0.49
CCOC1CC(CCNC(=O)NC2CC(C)C2)C1 (centres undefined),-12,1.5
Cc1c(C(=O)N2CCC[C@H]2c2ccc3c(c2)OCCO3)cnn1C,-2,0.35
Cc1ccc2c(c1)cc(CN(C)Cc1ccon1)c(=O)n2C,1,-0.11
COC(=O)C1CCN(CC2CCC(F)(F)CC2)CC1,-8,1.19
Cc1ccc2cc(CN(CCCN3CCCC3=O)C(=O)c3ccco3)c(N3CCC[C@H](O)C3)nc2c1,-17,2.02
COc1ccccc1C1N=C(c2ccc3c(c2)OCO3)CC(c2ccccc2O)N1 (centres undefined),15,-1.8
C[C@]12C[C@H](c3ccccc3O1)C(C(=O)N1CCCCC1)C(=O)N2 (some centres undefined),2,-0.33
COc1ccc(C)cc1C(=O)N1CCOC[C@@H](CN(C)C)C1,0,-0.01
O=C(C1CCN(c2ccc(F)cc2)C1=O)N1CCC(n2cccn2)C1 (centres undefined),-10,1.86
Cc1ccc(C(=O)[C@@H]2CC(=O)Nc3[nH]nc(C)c32)cc1C,-13,1.72
Cc1c([C@H](C)NC(=O)N(C)C2CCC(c3ccccc3)CC2)cnn1C (some centres undefined),-13,1.16
Cc1nc2c(s1)[C@@H](N(C)Cc1occc1C(=O)O)CCC2,-7,1.2
O=S1(=O)CCC(O)(CN2CCc3cc(Cl)ccc32)CC1,-8,0.85
Cc1csc(CNC[C@H]2COC3(CCC(C)CC3)O2)n1 (some centres undefined),-14,2

Structure (SMILES),% Inhibition [%],Z score
Cc1cc(C(=O)N2CC[C@H](Cc3noc(-c4ccccc4)n3)C2)nn1C,-17,3.26
COc1cc(C)ccc1OCc1nc(C(=O)N[C@H]2CCOC(C)(C)C2)co1,-3,0.49
Nc1nsc(N2CCN(S(=O)(=O)Cc3cccc(F)c3)CC2)n1,-22,2.87
O=C(NCCc1ccccc1)c1nn(CCOc2ccccc2)c2c1CNCC2,1,-0.2
CC(CCc1ccccc1)NC(=O)C1COCC(=O)N1Cc1cccs1 (centres undefined),-6,1.18
CC(=O)N1CCC[C@H]1C(=O)NCc1ccc(N2CCCCC2)nc1,-7,1.12
O=C(NCCN1CCCC1)c1ccc(-c2c(-c3ccc(F)cc3)ncn2C2CCCC2)o1,5,-0.8
CCC(=O)N(Cc1cc(-c2ccc(OC)cc2OC)on1)CC(C)C,-5,0.58
O=C(c1ccco1)N1CCN(C(=O)C2CN(c3cc(-n4cccn4)ncn3)C2)CC1,14,-1.85
NC(=O)c1ccc(S(=O)(=O)N[C@@H]2C[C@H]3OCC[C@@H]23)cc1,4,-0.5
Cc1nc(C)c(C(=O)NCC2CCOC2C(C)C)o1 (centres undefined),1,-0.2
Cc1cccnc1CCNC(=O)N1CC(O)(c2cccc(Br)c2)C1,-3,0.39
CCOC(=O)C1CCN(CN2C(=O)NC3(CCCCCCC3)C2=O)CC1,-5,0.62
COc1cc(OC)cc(-c2onc(C)c2C(=O)NCc2ccco2)c1,-9,0.87
Cn1cnn(Cc2ccccc2C(C)(C)C#N)c1=O,-9,0.76
O=C(Nc1ccc2c(c1)OCCCO2)c1n[nH]c2ccccc12,-8,1.42
Nc1cnccc1-c1cccc(C(=O)NCCCC[C@H]2CCCO2)c1,-17,1.66
CCN(C[C@H]1CCCO1)C(=O)CCc1nnc(CCc2ccc(OC)cc2)o1,-24,2.15
c1ccc(CNc2ccc(NCc3ccccc3)nn2)cc1,9,-1.12
Cc1cc(=O)n(CC(=O)NCc2ccccc2)c(N)n1,-15,1.58
COCCOCCS(=O)(=O)Nc1cccc2c1OC(C)(C)CC2,-5,0.71
